About 450 (0.94%) of roughly 48,000 compounds were called active. Roughly 19% stayed inconclusive and do not appear here. Calls follow the shape of the dose curve; as a rule, active = well fitted inhibition curve with a large enough effect; inconclusive = small, poorly fitted or top-dose-only effect; inactive = no such curve, though single readings can be large or run the other way. This is one part of the list.
assay: Primary qHTS for Identification of Small Molecule Inhibitors of Huntingtin Promoter Activity; settings: HEK293 HTT promoter firefly luciferase reporter (activity 0% = vehicle and -100% = no light), 24 h; series mostly up to 57.5 µM; activity change, negative = inhibition: at the top concentration; also: nearly all actives have a fitted effect of over 50% in size
How it was run: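 HEK293 Fluc reporter, 2,500 cells/well, 24 h pre-culture; cpds up to 57.5 uM final, 24 h 37 degrees C; Dual-Glo, 10 min RT; normalized vehicle = 0%, zero RLU = -100%.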
Potency is read from the fitted curve at half-maximal effect.

| SMILES | activity change, negative = inhibition | Potency |
| --- | --- | --- |
| O=C(c1cnc2cc(-c3ccccc3)nn2c1)c1cc([N+](=O)[O-])ccc1O | inactive: -11.8% | – |
| COc1cccc(/C=C/c2nc(C#N)c(N3CCCCC3)o2)c1 | inactive: 7.44% | – |
| O=C(C1CCCN(S(=O)(=O)c2cccc3nonc23)C1)N1CCN(c2cccc(Cl)c2)CC1 (centres undefined) | inactive: -7.48% | – |
| CCc1ccc(CSc2nc(-c3ccccc3OC)nc3c2Cc2c(CO)cnc(C)c2O3)cc1 | inactive: -21.4% | – |
| CCOc1ccccc1CNc1ncnc2c1nc1n2CCCC1 | inactive: -27.9% | – |
| CSc1ccc(CCNC(=O)CCc2c(C)nc3c(-c4ccccc4)c(C)nn3c2C)cc1 | inactive: -34.8% | – |
| Cc1ccccc1Cn1nc(C)c(NC(=O)c2cc(-c3ccc(F)cc3)on2)c1C | inactive: -12.7% | – |
| COC(=O)c1ccc2c(=O)n(CCCCCC(=O)NCc3ccccc3)c(=O)[nH]c2c1 | inactive: -7.35% | – |
| Cc1cccc(-n2c3c(cc(-c4nc(-c5ccc(Cl)cc5)cs4)c2=O)C(=O)CC(C)(C)C3)c1 | inactive: -7.67% | – |
| C=C[C@H]1CN2CC[C@H]1C[C@@H]2[C@@H](O)c1ccnc2ccc(OC)cc12 | inactive: 3.49% | – |
| O=C(CN1CCSc2ccccc21)N1CCN(c2ccccc2)CC1 | inactive: 0% | – |
| CCOC(=O)c1c(NC(=O)/C=C/c2ccc(OC)c(OC)c2)sc(C(C)=O)c1C | inactive: -7.94% | – |
| CCn1cc(C2N3CC4(CC)CN2CC(CC)(C3)C4=O)c2ccccc21 (centres undefined) | inactive: -18.3% | – |
| CCOC(=O)c1cnc2cc(C(F)(F)F)ccc2c1N1CCN(c2ccc(F)cc2)CC1 | inactive: -19.3% | – |
| Cc1ccc(Cn2ccn(CC(=O)Nc3ccccc3C(F)(F)F)c(=O)c2=O)cc1 | inactive: -26.3% | – |
| CCOc1ccc(CCNC(=O)CS(=O)Cc2nc(-c3ccc(C)cc3)oc2C)cc1OCC (centres undefined) | inactive: -32.5% | – |
| Cc1c(C(N)=O)cc([N+](=O)[O-])cc1[N+](=O)[O-] | inactive: -9.79% | – |
| COC(=O)c1ccccc1NC(=O)CSc1nc(-c2ccccc2)cc(C(F)(F)F)n1 | inactive: -25.6% [at 11.5 µM] | – |
| CC(=O)c1ccc(NC(=O)c2ccc3c(c2)N(Cc2cccc(Cl)c2)C(=O)c2ccccc2S3(=O)=O)cc1 | inactive: -5.26% | – |
| CCOC(=O)c1c(C)[nH]c(C)c1S(=O)(=O)N1CCC(C(=O)Nc2ccc(F)cc2F)CC1 | inactive: -26.1% | – |
| CCOc1ccccc1NC(=O)Cn1c(=O)n(CCCC(=O)NCCOC)c(=O)c2cc(OC)c(OC)cc21 | inactive: -14.2% | – |
| Cc1cc(Cl)ccc1NC(=O)CN1C(=O)CSc2ccc(S(=O)(=O)N(C)C)cc21 | inactive: -19.9% | – |
| CCOCCc1nn2c(=O)cc(COC(=O)COc3ccccc3Cl)nc2s1 | inactive: -9.43% | – |
| Cc1ccc(NC(=O)CN2CCCN(Cc3ccccc3Cl)S2(=O)=O)c(C)c1 | inactive: -8.99% | – |

| SMILES | activity change, negative = inhibition | Potency |
| --- | --- | --- |
| COc1ccc(CNC(=O)Cn2ccc3cc(S(=O)(=O)N4CCCCC4)ccc32)c(OC)c1 | inactive: -23.3% | – |
| CCn1c(=O)sc2cc(NC(=O)c3cccc(OC)c3)ccc21 | inactive: 12.8% | – |
| CCN1CCN(c2nnc(-n3cccc3C(=O)Nc3cccc(OC)c3)s2)CC1 | inactive: 5.21% | – |
| CC(C)c1nn2c(=O)cc(COC(=O)CNC(=O)c3ccccc3Cl)nc2s1 | inactive: -18.2% | – |
| O=C(Cn1ccn(-c2ccc(F)c(F)c2)c(=O)c1=O)c1ccc(F)cc1 | inactive: -24.4% | – |
| CCOc1ccc(Cn2c(CNS(=O)(=O)c3c(C)cc(C)cc3C)nc3cccnc32)cc1 | inactive: -11.6% | – |
| CCC(C)n1c(SCc2ccc(C(C)(C)C)cc2)nc2ccsc2c1=O (centres undefined) | inactive: -4.69% | – |
| Cc1ccc(OCc2nc(-c3ccc(C(=O)N4CCN(c5cc(Cl)ccc5C)CC4)cc3)oc2C)cc1 | inactive: -9.21% | – |
| O=S(=O)(c1ccccc1)c1nc(-c2cccs2)oc1SCc1ccccc1Cl | inactive: -18.2% | – |
| Oc1cn2c(n1)Nc1ccc(Cl)c(Cl)c1C2 | inactive: -6.95% [at 25.2 µM] | – |
| CCOC(=O)CC(=O)CSc1nc2ccccc2c(=O)n1-c1ccc(C(=O)NCCOC)cc1 | inactive: -12.5% | – |
| CS(=O)(=O)c1cccc(CNc2nc(Nc3ccc4c(c3)CCC(=O)N4)ncc2C(F)(F)F)c1 | inactive: 11.3% | – |
| CCOc1ccccc1NC(=O)CSc1nc2c([nH]c3ccccc32)c(=O)n1-c1ccccc1 | inactive: -27.6% | – |
| O=C(CC1NCCNC1=O)Nc1ccccc1F (centres undefined) | inactive: -15.7% | – |
| CCOC(=O)c1c(-c2ccc(C)cc2)csc1NC(=O)c1cc(=O)c2cc(Cl)ccc2o1 | inactive: 0.223% | – |
| Cc1ccc(Cl)cc1N1CCN(C(=O)c2cc3c(=O)n(C)c4ccccc4c3s2)CC1 | inactive: -7.8% | – |
| O=C(C1CC1)N1CCc2cc(Br)cc(S(=O)(=O)N3CCN(c4cccc(Cl)c4)CC3)c21 | inactive: -1% | – |
| CCOC(=O)c1cc(-c2ccccc2)n(-c2cccc(C(=O)Nc3cccc(C)c3)c2)c1C | inactive: -20.4% | – |
| Cc1ccc(CSc2ccc3nnc(CCNS(=O)(=O)c4ccc(C)cc4)n3n2)cc1 | inactive: -24.4% | – |
| Cc1cccc(OCC(=O)OCc2cc(=O)n3nc(-c4cccs4)sc3n2)c1 | inactive: -11.6% | – |
| CCc1nn(Cc2cccc(F)c2)c(=O)c2cc3cc(C)ccc3n12 | inactive: -6.4% | – |
| NCC1CCC(C(=O)O)CC1 (centres undefined) | inactive: -12.5% | – |
| Cc1ccc(-n2ncc(C(=O)N3CCN(c4ccccn4)CC3)c2C2CCN(C(=O)OC(C)(C)C)CC2)cc1 | inactive: -0.215% | – |
| CCC(C)NC(=O)Cn1c(=O)n(-c2ccc(Cl)c(Cl)c2)c(=O)c2c(C)c(C(=O)N(CC)CC)sc21 (centres undefined) | inactive: 0% | – |

| SMILES | activity change, negative = inhibition | Potency |
| --- | --- | --- |
| COc1ccc(Nc2c(-c3ccc(C)o3)nc3ccc(Cl)cn23)cc1 | inactive: 6.15% | – |
| COC(=O)c1ccccc1NC(=O)Cn1c(=O)nc(-c2ccccc2)c2cc(Cl)ccc21 | inactive: -9.34% | – |
| CCCCCCCCCCC[C@@H](C[C@@H]1OC(=O)[C@H]1CCCCCC)OC(=O)[C@H](CC(C)C)NC=O | inactive: -5.34% | – |
| Cc1cccc(C)c1Nc1c(-c2cccs2)nc2ncccn12 | inactive: -25% | – |
| CCCCC(=O)Nc1cc2nn(-c3ccc(OCC)cc3)nc2cc1C | inactive: 13.2% | – |
| Cc1cccc(Cn2cc(S(=O)(=O)c3ccc(Cl)cc3)c(=O)c3cc4c(cc32)OCO4)c1 | inactive: -26.7% | – |
| CC(=O)c1ccc(NC(=O)c2ccc(NC(=O)CCS(=O)(=O)c3cccs3)cc2)cc1 | inactive: 63.3% | – |
| Cn1c(=O)c2c(SCC(=O)NCC3CCCO3)nc(-c3cccc(F)c3)nc2n(C)c1=O (centres undefined) | inactive: -11% | – |
| CSc1ncc(C(=O)NCc2ccc(Cl)cc2)c(C(F)(F)F)n1 | inactive: -11.9% | – |
| Cc1nn(-c2ccccc2)c(OC(=O)c2ccc(F)cc2)c1S(=O)(=O)c1ccccc1 | inactive: -0.701% | – |
| CCOC(=O)CSc1nc(-c2ccccc2)cc(C(F)(F)F)c1C#N | inactive: -3.91% | – |
| CCN(C(=O)CCNC(=O)Cn1cnc2ccccc2c1=O)c1cccc(Cl)c1 | inactive: -3.32% | – |
| CCCn1cc(S(=O)(=O)c2ccc(C)cc2)c(=O)c2cc(OC)c(OC)cc21 | inactive: -20.3% | – |
| COc1cccc(NC(=O)C(=O)NCCc2csc(-c3ccc(C)cc3)n2)c1 | inactive: 41.3% | – |
| COc1ccc(C2=C(C)C(N3CCC(C(=O)Nc4cc(C)ccc4C)CC3)=NS2(=O)=O)cc1 | inactive: -18.5% | – |
| COC(=O)c1ccc(Cl)cc1NC(=O)NCc1c(-n2cccc2)sc2c1CCCC2 | inactive: -8.85% | – |
| CCOc1ccc(C(=O)Nc2ccc(C(=O)OCc3cc(=O)n4ccsc4n3)cc2)cc1 | inactive: 5.3% | – |
| CCOC(=O)c1ccc(NC(=O)c2csc3c2CCCC3)cc1 | inactive: 27.7% | – |
| O=C(Nc1cccc2cccnc12)c1cccc2ccccc12 | inactive: 41.5% | – |
| COc1cccc(N2CCN(C(=O)c3cc4c(=O)n(Cc5cccs5)ccc4nc3C)CC2)c1 | inactive: -27% | – |
| Cc1ccc(CNC(=O)Cn2ncc3c([nH]c4ccc(C)cc43)c2=O)cc1 | inactive: 5.52% | – |
| COc1ccccc1CCNC(=O)Cc1c(C)c2cc3c(C(C)(C)C)coc3c(C)c2oc1=O | inactive: -10% | – |
| COc1ccc(CCNC(=O)c2ccc(-n3c(C)cc4c3CCCC4)cc2)cc1OC | inactive: 13.1% | – |
| CCCc1cc(=O)[nH]c(SCc2nc(-c3ccc(C)cc3)no2)n1 | inactive: -3.54% | – |

| SMILES | activity change, negative = inhibition | Potency |
| --- | --- | --- |
| Cc1cccc(NC(=O)Cn2cnc(S(=O)(=O)N3CCCC3)c2)c1C | inactive: -32.8% | – |
| CC(C)Oc1ccc(CNC(=O)Nc2ccc3c(c2)N(C)C(=O)c2ccccc2S3)cc1 | – | active: 25.1 µM |
| CCCSc1ncc(Cl)c(C(=O)Nc2c(C(=O)Nc3ccccc3)oc3ccccc23)n1 | inactive: -4.46% | – |
| O=C(OCC1CCCO1)c1ccc2c(c1)N(Cc1cccc(Cl)c1)C(=O)c1ccccc1S2(=O)=O (centres undefined) | inactive: -1.01% | – |
| Cc1ccc(NC(=O)NCCOCCn2c(=O)oc3ccccc32)cc1F | inactive: -7.41% | – |
| O=C1O[C@H](CO)[C@@H](O)[C@H](O)[C@H]1O | inactive: -0.794% | – |
| Cn1c(=O)c2c(ncn2CC(=O)O)n(C)c1=O | inactive: 6.12% | – |
| Cc1cccc(NC(=O)c2c(NC(=O)c3ccccc3)sc3c2CCCC3)c1 | inactive: -1.05% | – |
| Cc1cc(C)c2c(n1)nn1c(C)c(CCC(=O)NCc3ccccc3Cl)c(C)nc21 | inactive: 17.3% | – |
| COC(=O)c1c(C)sc(-c2c(-c3ccc4c(c3)OCCO4)[nH]c3[nH]c(=O)[nH]c(=O)c23)c1O | inactive: 0.168% | – |
| CCOc1ccc(-c2cc3nc(C4CCN(C(=O)OC(C)(C)C)CC4)c(C(=O)Nc4ccc(C)cc4Cl)cn3n2)cc1 | inactive: -19.6% | – |
| O=S(=O)(c1ccc(Br)cc1)c1nnn2c1nc(Nc1cccc(C(F)(F)F)c1)c1sccc12 | inactive: -7.27% | – |
| CN1CCSc2ccc(C(=O)NCc3ccccc3F)cc21 | inactive: 37.4% | – |
| COc1cc(C(=O)Nc2nc3c(s2)Cc2c(Br)ccc(OC)c2-3)cc(OC)c1OC | inactive: -16.4% | – |
| O=C(Nc1nnc(N2CCCCCC2)s1)Nc1ccccc1C(F)(F)F | inactive: 8.23% | – |
| CCC(Sc1nc2ccccc2c2nc(CCc3c(C)n[nH]c3C)nn12)C(=O)Nc1ccc(OC)cc1 (centres undefined) | inactive: 4.05% | – |
| COc1ccc(Cl)cc1NC(=O)CSc1c2c(nc3ccccc13)CCC2 | inactive: -26.3% | – |
| CCN(c1ccccc1)S(=O)(=O)c1ccc(NC(=O)c2cc(=O)c3cc(C)ccc3o2)cc1 | inactive: -10.8% [at 11.5 µM] | – |
| O=C(c1ccc2c(c1)N(Cc1ccc(F)cc1)C(=O)c1ccccc1S2=O)N1CCOCC1 (centres undefined) | inactive: -15.6% | – |
| Cc1ccccc1-n1c(=O)c2c3c(sc2n2cnnc12)CCCC3 | inactive: -10.1% [at 11.5 µM] | – |
| O=S(=O)(Nc1cccc(-c2ccc(N3CCCC3)nn2)c1)c1ccc(F)cc1F | inactive: 9.56% | – |
| COc1ccc(NC(=O)CSc2c3c(nc4ccccc24)CCC3)c(OC)c1 | inactive: -1.97% | – |

Reference: PubChem BioAssay AID1508623 (National Center for Advancing Translational Sciences (NCATS), 2021)
